# Results: the supplement of paper PMC8728848
# The list shows a part of the results.
# B1: FedF (Escherichia coli), Q47212 (protein)
# chain: MRLKYILIIPLLLISLSVFASTLQVDKSVSYDWINSSASSAQVTGTLLGTGKTNTTQMPALYTWQHQIYNVNFIPSSSGTLTCQAGTILVWKNGRETQYALECRVSIHHSSGSINESQWGQQSQVGFGTACGNKKCRFTGFEISLRIPPNAQTYPLSSGDLKGSFSLTNKEVNWSASIYVPAIAKSYRLDTSITLPDTVNLKQNQATPVYYTFSAPSVSNTITGIPNQNDMPSSNVKLTIGPIQSKTTALYVQPDATGSWYDLSKSITMTVVKSSMLNFKGINAKPGNVTLSVPIVFEIQ
# Tests used:
# Assay in all cases: glycan array binding signal (z-score within array); higher = stronger binding
# Details in all cases: glycan notation: IUPAC condensed, linker removed
# [1] = target: Neu5Ac(a2-6)Gal(b1-4)GlcNAc(b1-2)Man(a1-3)[Neu5Ac(a2-6)Gal(b1-4)GlcNAc(b1-2)Man(a1-6)]Man(b1-4)GlcNAc(b1-4)GlcNAc
# Outline: (§1)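 The binding signal is a Z-score computed within each array. Data were drawn from 3228 arrays in the Consortium for Functional Glycomics database, restricted to those with a known protein sequence. Scores were averaged over arrays of the same protein sequence at different concentrations or buffers, and over linkers, and negative values can be taken as non-binding.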
# [2] = target: Neu5Ac(a2-6)Gal(b1-4)GlcNAc(b1-2)Man(a1-6)Man(b1-4)GlcNAc(b1-4)GlcNAc
# Outline: as §1
# [3] = target: Neu5Ac(a2-6)Gal(b1-4)GlcNAc(b1-2)Man(a1-6)[Gal(b1-4)GlcNAc(b1-2)Man(a1-3)]Man(b1-4)GlcNAc(b1-4)GlcNAc
# Outline: as §1
# [4] = target: Neu5Ac(a2-6)Gal(b1-4)GlcNAc(b1-2)Man(a1-6)[GlcNAc(b1-2)Man(a1-3)]Man(b1-4)GlcNAc(b1-4)GlcNAc
# Outline: as §1
# [5] = target: Neu5Ac(a2-6)Gal(b1-4)GlcNAc(b1-2)Man(a1-6)[Man(a1-3)]Man(b1-4)GlcNAc(b1-4)GlcNAc
# Outline: as §1
# [6] = target: Neu5Ac(a2-6)Gal(b1-4)GlcNAc(b1-3)Gal(b1-3)GlcNAc
# Outline: as §1
# [7] = target: Neu5Ac(a2-6)Gal(b1-4)GlcNAc(b1-3)Gal(b1-4)GlcNAc
# Outline: as §1
# [8] = target: Neu5Ac(a2-6)Gal(b1-4)GlcNAc(b1-3)Gal(b1-4)GlcNAc(b1-3)Gal(b1-4)GlcNAc
# Outline: as §1
# [9] = target: Neu5Ac(a2-6)Gal(b1-4)GlcNAc(b1-3)Gal(b1-4)[Fuc(a1-3)]GlcNAc(b1-3)Gal(b1-4)[Fuc(a1-3)]GlcNAc
# Outline: as §1
# [10] = target: Neu5Ac(a2-6)Gal(b1-4)GlcNAc(b1-3)GalNAc
# Outline: as §1
# [11] = target: Neu5Ac(a2-6)Gal(b1-4)GlcNAc6S
# Outline: as §1
# Neu5Ac(a2-6)GalNAc = target: Neu5Ac(a2-6)GalNAc
# Outline: as §1
# [12] = target: Neu5Ac(a2-6)GalNAc(b1-4)GlcNAc
# Outline: as §1
# [13] = target: Neu5Ac(a2-6)GlcNAc(b1-4)GlcNAc
# Outline: as §1
# [14] = target: Neu5Ac(a2-6)GlcNAc(b1-4)GlcNAc(b1-4)GlcNAc
# Outline: as §1
# Neu5Ac(a2-8)Neu5Ac = target: Neu5Ac(a2-8)Neu5Ac
# Outline: as §1
# [15] = target: Neu5Ac(a2-8)Neu5Ac(a2-3)Gal(b1-3)GalNAc(b1-4)[Neu5Ac(a2-8)Neu5Ac(a2-3)]Gal(b1-4)Glc
# Outline: as §1
# [16] = target: Neu5Ac(a2-8)Neu5Ac(a2-3)Gal(b1-4)Glc
# Outline: as §1
# [17] = target: Neu5Ac(a2-8)Neu5Ac(a2-3)[Gal(b1-3)GalNAc(b1-4)]Gal(b1-4)Glc
# Outline: as §1
# [18] = target: Neu5Ac(a2-8)Neu5Ac(a2-3)[GalNAc(b1-4)]Gal(b1-4)Glc
# Outline: as §1
# [19] = target: Neu5Ac(a2-8)Neu5Ac(a2-8)Neu5Ac
# Outline: as §1
# [20] = target: Neu5Ac(a2-8)Neu5Ac(a2-8)Neu5Ac(a2-3)Gal(b1-4)Glc
# Outline: as §1
# [21] = target: Neu5Ac(a2-8)Neu5Ac(a2-8)Neu5Ac(a2-3)[GalNAc(b1-4)]Gal(b1-4)Glc
# Outline: as §1
# [22] = target: Neu5Ac(a2-8)Neu5Ac(a2-8)Neu5Ac(a2-8)Neu5Ac(a2-3)[GalNAc(b1-4)]Gal(b1-4)Glc
# Outline: as §1
# Neu5Ac(b1-6)GalNAc = target: Neu5Ac(b1-6)GalNAc
# Outline: as §1
# [23] = target: Neu5Ac(b2-6)Gal(b1-4)GlcNAc
# Outline: as §1
# Neu5Ac(b2-6)GalNAc = target: Neu5Ac(b2-6)GalNAc
# Outline: as §1
# [24] = target: Neu5Ac9Ac(a2-3)Gal(b1-3)GlcNAc
# Outline: as §1
# [25] = target: Neu5Ac9Ac(a2-3)Gal(b1-4)GlcNAc
# Outline: as §1
# [26] = target: Neu5Ac9Ac(a2-6)Gal(b1-4)GlcNAc
# Outline: as §1
# [27] = target: Neu5Gc(a2-3)Gal(b1-3)GlcNAc
# Outline: as §1
# [28] = target: Neu5Gc(a2-3)Gal(b1-3)[Fuc(a1-4)]GlcNAc
# Outline: as §1
# Neu5Gc(a2-3)Gal(b1-4)Glc = target: Neu5Gc(a2-3)Gal(b1-4)Glc
# Outline: as §1
# [29] = target: Neu5Gc(a2-3)Gal(b1-4)GlcNAc
# Outline: as §1
# [30] = target: Neu5Gc(a2-3)Gal(b1-4)[Fuc(a1-3)]GlcNAc
# Outline: as §1
# [31] = target: Neu5Gc(a2-6)Gal(b1-4)GlcNAc
# Outline: as §1
# Neu5Gc(a2-6)GalNAc = target: Neu5Gc(a2-6)GalNAc
# Outline: as §1
# [32] = target: Neu5Gc(b2-6)Gal(b1-4)GlcNAc
# Outline: as §1
binder,measurement,setting,value
B1,glycan array binding signal (z-score),[1],-0.12
same,glycan array binding signal (z-score),[2],0.04
same,glycan array binding signal (z-score),[3],-0.097
same,glycan array binding signal (z-score),[4],-0.154
same,glycan array binding signal (z-score),[5],-0.107
same,glycan array binding signal (z-score),[6],0.251
same,glycan array binding signal (z-score),[7],-0.344
same,glycan array binding signal (z-score),[8],-0.084
same,glycan array binding signal (z-score),[9],-0.254
same,glycan array binding signal (z-score),[10],0.274
same,glycan array binding signal (z-score),[11],-0.077
same,glycan array binding signal (z-score),Neu5Ac(a2-6)GalNAc,-0.172
same,glycan array binding signal (z-score),[12],-0.187
same,glycan array binding signal (z-score),[13],-0.162
same,glycan array binding signal (z-score),[14],-0.193
same,glycan array binding signal (z-score),Neu5Ac(a2-8)Neu5Ac,0.043
same,glycan array binding signal (z-score),[15],-0.166
same,glycan array binding signal (z-score),[16],0.101
same,glycan array binding signal (z-score),[17],-0.138
same,glycan array binding signal (z-score),[18],0.205
same,glycan array binding signal (z-score),[19],-0.082
same,glycan array binding signal (z-score),[20],-0.283
same,glycan array binding signal (z-score),[21],0.274
same,glycan array binding signal (z-score),[22],-0.173
same,glycan array binding signal (z-score),Neu5Ac(b1-6)GalNAc,-0.365
same,glycan array binding signal (z-score),[23],-0.286
same,glycan array binding signal (z-score),Neu5Ac(b2-6)GalNAc,-0.117
same,glycan array binding signal (z-score),[24],-0.186
same,glycan array binding signal (z-score),[25],-0.13
same,glycan array binding signal (z-score),[26],0.054
same,glycan array binding signal (z-score),[27],0.252
same,glycan array binding signal (z-score),[28],-0.306
same,glycan array binding signal (z-score),Neu5Gc(a2-3)Gal(b1-4)Glc,-0.182
same,glycan array binding signal (z-score),[29],-0.223
same,glycan array binding signal (z-score),[30],-0.223
same,glycan array binding signal (z-score),[31],-0.063
same,glycan array binding signal (z-score),Neu5Gc(a2-6)GalNAc,-0.115
same,glycan array binding signal (z-score),[32],0.178
